# Laboratory results as given in the RNAGym collection of RNA variant scans (doi:10.1093/nar/gkz1192).
# Read counts are not given, so values of variants with three or more changes are uncertain.
# B1: CPEB3 Ribozyme (parent)
# chain: UAACAGGGGGCCACAGCAGAAGCGUUCACGUCGCAGCCCCUGUCAGAUUCUGGUGAAUCUGCGAAUUCUGCUGUAUAUCUC
# Variants of: B1
# Assay: self-cleavage, relative activity (ratio to wild type); higher = more cleavage; in vitro, sequencing
# Procedure, shortened: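 CPEB3 self-cleaving ribozyme mutant libraries were made by rounds of error-prone PCR, barcoded, and transcribed in vitro with T7 RNA polymerase for 5 hours at 37°C. Cleavage occurred during transcription and a 15 min DNase I step before EDTA stop. RNAs were reverse transcribed with template switching and Illumina-sequenced, with DNA sequencing mapping barcodes to variants. Relative activity is the variant's cleaved/total read fraction divided by wild type's (minimum 5 reads), averaged across three batches.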
row,Variant,self-cleavage
1,UGGCAGGGGGCCACAGCAGAAGCGCUCACGUCGCAGCCCCUGUCAGAUUCUGGUGUAUCUGCGUAUUCUGCUGUAUAUCUC [A2G A3G U25C A56U A64U],0.09
2,UCACAGGGGGCCACAGCAGAAGCGUUCACGUCGCAGCCCCUGUCAGAUUCUGGUGAAUCUGCGACUUCCGCUGAAUAUCUC [A2C A65C U69C U74A],0.25
3,UGACAGGGGGCCGCAGCAGAAGCGUUCACGUCGCAGCCCCUGUCAGAUUCUGGUGAAUCUGCGAAUUCUGCCGUAUAUCUC [A2G A13G U72C],0.47
4,UGACGGGGGACCACAGCAGAAGCGUUCACGUCGCAGCCCCUGCCAGAUUCUGGCGAAUCUGCAAAUUCUGCUGUAUAUCUC [A2G A5G G10A U43C U54C G63A],0.45
5,UCACAGGGGGCCAUAGCAGAAGCGUUCGCGUCGCAGCCCUUGUCAGAUUCUGGUGAAUCUGCGAAUUCUGCUGUAUAUCUC [A2C C14U A28G C40U],0.29
6,UGACAGGGGGCCGCAGCAGAAGCGUUCACGAGGCAGCCCCUGUCAGAUUCUGGUGAAUCUGCAAAUUCUGCUGUAUAUCUC [A2G A13G U31A C32G G63A],0.36
7,UCACAAGGGGCCACUGCAGAAGCGUUCACGUCGCUGCCCCUGUCGGAUUCUGGUGAAUCUGCGAAUUCUGCAGUAUAUCUC [A2C G6A A15U A35U A45G U72A],0.06
8,UCACAGGGGGCCACAGCAGAAGCGUUCACGGCGCAGCCCCCGUCAGAUUCUGGUGAAUCUGCGAAUUAUGCUGUAUAUCUC [A2C U31G U41C C68A],0.25
9,UGACGGGGGGCCACUGCAGAAGCGUUCACGUCGCAGCCCCUGUCAGAUUCUGGUGAAUCUGCGAAUUCUGCUGUAUAUCUC [A2G A5G A15U],0.84
10,UGACGGGGGGCCUCAGCAGAAGCGUCCACGUCGCAGCCCCUGUCAGAUUCUGGUGAAUCUGCGAAUUCUGCUGUAUAUCUC [A2G A5G A13U U26C],0.62
11,UGACUGGGGGCCACAGCAGAAGCGCUCACGUCGCAGCUCCUGUCAGAUUCUGGUGAAUCUGCGAAUUCUGCUGUAUAUCUC [A2G A5U U25C C38U],0.1
12,UCACAUGGGGCCACAGCCGAAGCGUUCACGUCGCAGCCCCUGUCAGAUUCUGGUGAAUCUGCGAAUUCUGCUGUAUGUCUC [A2C G6U A18C A77G],0.38
13,UGACAGGGGGCCCCAGCAGAAGCGUUCACGUCGCUGCCCCUGUCAGAUCCUGGUGAAUCUGCGAUUUCUGCUGCCUAUCUC [A2G A13C A35U U49C A65U U74C A75C],0.55
14,UGACGGGGGGCCACAGCAGAGGCGUUCACGUCGCAGCCCCUGUCAGAUUCUGGUGAGUCUGCGAAUUCUGCCGUAUAUCUC [A2G A5G A21G A57G U72C],0.15
15,UCACAGGGGGCCACAGCAAAAGCGUUCACGUCGCAGCCCCUGUCAGAUUCUGGUGAAUCUGCGAAUUCUGCUGGAUAUCUC [A2C G19A U74G],0.23
16,UGUCAGGGGGCCACAGCAGAAGCGUUCACGUCGCAGCCCCUGACAGAUUCUGGUGAAUCUGCGAAUCCUGCUGUAUAUCUC [A2G A3U U43A U67C],0.5
17,UGGCGGGGGGCCACUGCAGAAGCGUUCACGUCGCAGCCCCUGUCAGACUCUGGUGAAUCUGCGAAUUCUGCUGUAUAUCUC [A2G A3G A5G A15U U48C],0.31

row,Variant,self-cleavage
1,UCACAGGGGGUCACAGCCGAAGCGUACUCGUCGCAGCCCCUGUCAGAUUCUGGUGAAUCUGCGAAUUCUGCUGUAUAUCUC [A2C C11U A18C U26A A28U],0.32
2,UGACAGGGGGCCGCUGCAGAAGCGUUCACGUCGCUGCCCCUGUAAGAUUCUGGUGAAUCUGCGAAUUCUGCUGUUUAUCUC [A2G A13G A15U A35U C44A A75U],0.08
3,UGGCUGGGGGCCACAGCAGAAGCGUCCACGUCGCAGCCCCUGUCAGAUUCUGGUGAAUCUGCGGAUUCUGCUGUAUAUCUC [A2G A3G A5U U26C A64G],0.49
4,UGACGGUGGGCCACAGCAGAAGCGUUCACGACGCAGCCCCUGUCAGAUUCUGGUGAAUCUGCGAAUUCUGCUGUAUAUCUC [A2G A5G G7U U31A],0.08
5,UGACGGGGGGCCACAGCAGAAGCGUUCACGUCGCAGCCCCUGACGGAUUCUGGUGAAUCUGCGAAUUCUGCUGUAUAUCUC [A2G A5G U43A A45G],0.61
6,UGGCAGGGGGCCACAGCAGAAGCGUUCGCGUCGCAGCCUCUGUCAGAUUCUGGCGAAUCUGCGAAUUCUGCUGUAUAUCUC [A2G A3G A28G C39U U54C],0.48
7,UGGCAGGGGACCACAGCGGAAGCGCUCACGUCGCAGCCCCUGUCAGAUUCUGGUGAGUCUGCGAAUUCUGCUGUAUAUCUC [A2G A3G G10A A18G U25C A57G],0.69
8,UCACAGGGGGCCACGGCAGAAGCGUUCACGACGCAGCCCCUGUCAGAUUCUGGUGAAUCUGCGAAUUCAGCUGUAUAUCUC [A2C A15G U31A U69A],0.34
9,UCACAGGGGGCCACUGCAGAAGCGUUCACGUCGCAGCCCCUGUCAGAUUCUGGUGAAUCUGCGUAUUCUGCUGUAUAUCUC [A2C A15U A64U],0.21
10,UGACAGGGGGCCGCAGCAGAAGCGUACACGUCGCAGCCCCUGUCAGACUCUGGUGAAUCUGCGAAUUCUGCUGUAUAUCUC [A2G A13G U26A U48C],0.24
11,UCACAGGGGGGCACAGCAGAAGCGUUCACGUCGCAGCCCCAGUCAGGUUCUGGUGAAUCUGCGAAUUCUGCUGUAUAACUC [A2C C11G U41A A47G U78A],0.05
12,UGACUGGGGGCCACAGCAGAAGCGUGCACGUCGCAGCCCCUGACAGAUUCUGGUGAAUCUGCGAAUUUUACUGUAUAUCUC [A2G A5U U26G U43A C68U G70A],0.07
13,UGUCAGGGGACCACAGCAGAAGCGUUCACGUCGCAGCCCCUGUCAGAUUCUGGUGAAUCUGCGAAUUCUGCCGUACAUCUC [A2G A3U G10A U72C U76C],0.06
14,UGGCAGGGGGCCACAGCAGAAGCGUCCACGUCGCAGCCCCUGUCAGUUUCUGGUGAAUCUGCGAAUUCUGCUGUAUACCUC [A2G A3G U26C A47U U78C],0.5
15,UGACUGGGGGCCACAGCAGUAGCGUUCACGUCGCAGCCCCUGUCAGAUCCUGGUGGAUCUGCGAAUUCUCCUGUAUAUCUC [A2G A5U A20U U49C A56G G70C],0.15
16,UGUCAGGGGGCCACAGGAGAAGCGUCCACGUCGCAGCCCCUGUCAGAUUCUGGUGAAUCUGCGAAUUCUGCUGUAUAUCUC [A2G A3U C17G U26C],0.05
17,UCACAGGGGGCCACAGCAGAUGCGUUCACGUCUCAGCCCCUGUCAGAUUCUGGUGAAUCUGCGAAUUCUGCUGUAUAUCUC [A2C A21U G33U],0.16
